From article PMC12040169 (PLOS Biology, 2025)
This is one part of the list.

These compounds were tested on T1, C. trachomatis L2/434/Bu expressing GFP (CTL2-GFP). Settings: total inclusion area; 28.5 h, 10 µM; inhibitor.
T1 construct: L2/434/Bu GFP intracellular growth in HeLa cells
Set-up: species or system HeLa; C. trachomatis total inclusion area by high-content imaging, normalised to DMSO
Summary of the method: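 After bulk GFP and resorufin fluorescence reads, cells were fixed, stained with Hoechst and imaged by high-content microscopy. Inclusion area and number (GFP) stood in for chlamydial growth, nuclei count (Hoechst) for host cell viability. MICs were derived as for the bulk readout.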

First: O=C(NCCCC1CCOC1)c1cc2ccc(F)cc2[nH]1 (centres unmarked) [CBK283213]
Second: O=C(NCCC1SC(NC2CCCCCC2)=NC1=O)Nc1ccc(F)cc1F (centres unmarked) [CBK067469]
The “% of control remaining” value of the first is higher: 72.625 for the first, 53.4256 for the second.

Going from CC(=O)Nc1ccc(S(=O)(=O)N2CCC(N3CCOCC3)CC2)cc1 [CBK264653G] to COc1ccc(NC(=O)C2CC3CCC2C3)cc1S(=O)(=O)Nc1ccc(Cl)cc1 (centres unmarked) [CBK297945], the “% of control remaining” value falls from 90.6728 to 80.551.

Going from CS(=O)(=O)N1CC2(CCN(C(=O)[C@@H](N)COCc3ccccc3)CC2)c2ccccc21 [CBK022597C] to CC(=O)c1ccccc1-c1cnc(N(C)S(C)(=O)=O)c(C(=O)NCCc2ccccc2)c1 [CBK076516], the “% of control remaining” value rises from 79.0803 to 101.983.

First: Cc1cc(C2CCCCCN2C(=O)c2cc(C(C)C)on2)on1 (centres unmarked) [CBK281733]
Second: COc1ccc(Br)cc1C1CCCN1C(=O)Cc1cnccc1C (centres unmarked) [CBK304130]
The “% of control remaining” value of the first is higher: 92.3826 for the first, 81.311 for the second.

First: CCC1(C)CC(=O)c2cc(NC(=O)N(CCO)CCO)ccc2O1 (centres unmarked) [CBK307003]
Second: CCC1(CC)OC(N[C@@H](CO)c2ccccc2)=NC1=O [CBK126756]
The “% of control remaining” value of the first is lower: 57.4309 for the first, 89.5182 for the second.

Going from CC(C)NC(=O)c1sc2ccccc2c1C1CN(C(=O)CC2CCCCC2)CCO1 (centres unmarked) [CBK285869] to CCN(C(=O)c1ccc(=O)[nH]c1)C(CC1CCCCC1)c1ccccc1 (centres unmarked) [CBK062678], the “% of control remaining” value falls from 116.944 to 21.7228.

First: Fc1cccc(-c2nc(-c3cccnc3)no2)c1 [CBK270260]
Second: O=C(CCCc1nc(-c2ccccc2Cl)no1)Nc1cccnc1 [CBK269122]
The “% of control remaining” value of the first is lower: 114.247 for the first, 133.284 for the second.

First: N=C(N)SCCCCSC(=N)N [CBK278304B]
Second: O=C(O)CCSc1nnnn1C1CCCCC1 [CBK263052]
The “% of control remaining” value of the first is lower: 99.9341 for the first, 104.995 for the second.

Compared with CN1CCN(C(=S)SCc2nc(N)nc(Nc3ccc(F)cc3)n2)CC1 [CBK265230], Cc1cccc(Nc2nc(N)nc(CC(=O)CSc3ccc(Cl)cc3)n2)c1 [CBK265204] is lower in “% of control remaining” value: 92.0748 for the first, 89.8804 for the second.

Compared with O=C(CN1CCC(c2ccc(F)cc2)CC1)Nc1nccs1 [CBK283566], CCc1cc(C(=O)N2CCC(Oc3ccc(F)cc3)CC2)n(C)n1 [CBK282034] is lower in “% of control remaining” value: 75.0182 for the first, 71.8202 for the second.

Going from O=C(O)c1ccc(NC2OC(CO)C(O)C2O)cc1 (centres unmarked) [CBK218836] to CCc1ccc(S(=O)(=O)Nc2ccc(O)c(C(=O)O)c2)cc1 [CBK299827], the “% of control remaining” value falls from 106.097 to 63.8485.

Going from CN1[C@@H](CCC(=O)N2CCN(c3ccccn3)CC2)CNC(=O)[C@H]2NCC[C@H]21 [CBK289031] to O=C(NC[C@H]1C[C@@H]2CC[N@]1C[C@@H]2CN1CCN(c2ccccn2)CC1)c1ccco1 [CBK288867], the “% of control remaining” value falls from 95.0821 to 91.9345.

First: COC(=O)Cn1c(=O)c2c(nc3oc(C(C)(C)C)cn32)n(C)c1=O [CBK306029]
Second: CCCNc1nc(-c2cc(OC)c(OC)c(OC)c2)cn2ccnc12 [CBK066363]
The “% of control remaining” value of the first is lower: 59.5283 for the first, 110.544 for the second.

Going from O=C(NCCSCc1c(F)cccc1Cl)Nc1ccccc1 [CBK265340] to COc1cnc(-c2ccc(Cl)cc2Cl)c(NC(=O)Cc2ccccc2)n1 [CBK145398], the “% of control remaining” value rises from 91.2961 to 105.26.

First: COc1ccc(-c2cn(-c3ccc(OC(F)(F)F)cc3)nn2)cc1 [CBK113024]
Second: O=C(COC(=O)c1ccc(Cl)c(Cl)c1)c1ccc(Oc2ccc([N+](=O)[O-])cc2)cc1 [CBK264821]
The “% of control remaining” value of the first is higher: 92.808 for the first, 91.9449 for the second.

Compared with CCOCCCNC(=O)c1cnn2c(C)c(Cc3cccnc3)c(C)nc12 [CBK162152], COc1ccccc1CN(Cc1cccnc1)C(=O)CNC(C)=O [CBK306843] is higher in “% of control remaining” value: 23.7878 for the first, 74.9621 for the second.

Compared with COc1c(Cl)ccc(Cl)c1C(=O)OCC(=O)O [CBK264596], O=C(COC(=O)c1cc(-c2ccc(Cl)cc2)nc2ccccc12)c1cccc([N+](=O)[O-])c1 [CBK293923] is higher in “% of control remaining” value: 94.4762 for the first, 119.669 for the second.

Compared with FC(F)(F)c1ccnc(SCCc2ccccn2)c1 [CBK103709], FC(F)(F)c1ccnc(SCCc2ccncc2)n1 [CBK105302] is higher in “% of control remaining” value: 103.53 for the first, 131.199 for the second.

Going from Cc1nn(C)c(N2CCNCC2)c1NC(=O)/C=C/c1cccnc1 [CBK050354T] to Cc1ccc(S(=O)(=O)Nc2ccc(N3CCCNCC3)cc2N(C)S(C)(=O)=O)cc1 [CBK000017C], the “% of control remaining” value falls from 95.877 to 74.1486.

First: O=C(CN1CCCC2(CCN(C(=O)c3ccoc3)C2)C1)Nc1ncccn1 (centres unmarked) [CBK137140]
Second: Cc1nc(CN2CCCC3(CCN(C(=O)c4ccoc4)C3)C2)cs1 (centres unmarked) [CBK132838]
The “% of control remaining” value of the first is higher: 99.5785 for the first, 87.5219 for the second.

Compared with O=C(Nc1cccnc1)c1c(O)n(Cc2ccccc2)c2ccccc2c1=O [CBK291206], O=C(NC(=S)Nc1ccc2oc(-c3cccc4ccccc34)nc2c1)c1ccco1 [CBK263691] is higher in “% of control remaining” value: 95.7168 for the first, 111.719 for the second.

Compared with Cc1nn(C)c(Cl)c1CN(CCC#N)Cc1ccco1 [CBK304825], S=C(NCCc1c[nH]c2ccccc12)NCc1ccco1 [CBK267157] is higher in “% of control remaining” value: 35.8179 for the first, 123.277 for the second.

First: CC(C)NC(=O)CSc1nc2ccccc2[nH]1 [CBK072235]
Second: C#CCNC(=O)N1CCC(c2c[nH]c3ccccc23)CC1 [CBK305034]
The “% of control remaining” value of the first is higher: 88.0679 for the first, 32.2837 for the second.

Compared with O=C(Cn1cnc2ccccc21)N1CCC(c2ccccc2)C1 (centres unmarked) [CBK281845], O=C(c1ccncc1)N1CCCC(c2cc3ccccc3cn2)C1 (centres unmarked) [CBK285166] is lower in “% of control remaining” value: 113.816 for the first, 94.9795 for the second.

First: COc1c(O)ccc(/C=N/NC(=O)c2cccnc2)c1[N+](=O)[O-] [CBK262197]
Second: Oc1cc2cccnc2nc1-c1ccccc1 [CBK073697]
The “% of control remaining” value of the first is higher: 78.017 for the first, 75.532 for the second.

Going from CC(C)C(=O)N1CCC(c2[nH]ncc2-c2ccncc2)CC1 [CBK284237] to CCOC(=O)c1ccoc1CN1CCCC1c1ccsc1 (centres unmarked) [CBK304878], the “% of control remaining” value falls from 86.3166 to 57.5273.

Compared with CCCN(C(=O)CCc1ccc(C)cc1C)C1CCNCC1 [CBK304302C], CCCc1[nH]nc(O)c1CCc1cccc(OC)c1OC [CBK075078] is higher in “% of control remaining” value: 68.4279 for the first, 112.438 for the second.

Compared with Cc1cc(CN(C)C(=O)Cc2csc(NC(=O)c3ccoc3C)n2)no1 [CBK305779], Cc1cc(NC(=O)c2cccs2)nc2c1c(=O)oc1ccccc12 [CBK287439] is higher in “% of control remaining” value: 36.1553 for the first, 107.057 for the second.

Compared with Cc1cccc(C(N)=O)c1O [CBK012294], C/C(=N\NC(=O)CCc1c(C)n[nH]c1C)c1ccc(N)cc1 [CBK262935] is lower in “% of control remaining” value: 94.3882 for the first, 92.3388 for the second.

First: CC(=O)N1C[C@H](c2ccsc2)[C@H]2CN(Cc3cccs3)CC[C@H]21 [CBK284586]
Second: Cn1cc(CN2CCCC(c3cc4ccccc4cn3)C2)cn1 (centres unmarked) [CBK285042]
The “% of control remaining” value of the first is lower: 72.7743 for the first, 78.2603 for the second.

First: Oc1cccc(Sc2nccc(C(F)(F)F)n2)c1 [CBK093801]
Second: CC(CCCC(C)(C)O)Nc1cncc(-c2cccc(Cl)c2)n1 (centres unmarked) [CBK037857]
The “% of control remaining” value of the first is higher: 107.235 for the first, 92.2498 for the second.

Compared with O=C(O)CCCC(=O)N(c1ccccc1)c1ccccc1 [CBK286901], O=C1Nc2ccccc2C1Cc1cccc(OC(F)F)c1 (centres unmarked) [CBK287892] is higher in “% of control remaining” value: 86.3268 for the first, 86.6949 for the second.

Going from FC(F)(F)C1CN(C2CCCCC2)C(=S)S1 (centres unmarked) [CBK009719] to CC1CCc2nn(CCNC(=O)C3CCCC3)c(=O)cc2C1 (centres unmarked) [CBK284484], the “% of control remaining” value rises from 64.626 to 106.147.

First: Cc1nc2n(/N=C/c3ccc([N+](=O)[O-])cc3)c3ccccc3n2c1C#N [CBK263107]
Second: Cc1nc2n(CCN3CCCCC3)c3ccccc3n2n1 [CBK278258C]
The “% of control remaining” value of the first is higher: 104.37 for the first, 84.3937 for the second.

Going from Cc1ccccc1OCC(O)Cn1c(=N)n(CCN2CCCCC2)c2ccccc21 (centres unmarked) [CBK266698C] to CCCS(=O)(=O)N1CCN(CCN2C(=O)c3cccc4cccc(c34)C2=O)CC1 [CBK265559], the “% of control remaining” value rises from 71.8838 to 87.2119.

First: Cc1ccc(NC(=O)c2cc(C(=O)Nc3ccc(C)c(C)c3)cc(N3C(=O)c4ccccc4C3=O)c2)cc1C [CBK261328]
Second: CN(C)c1ccc(-c2cc(NCCc3ccncc3)ncn2)cc1 [CBK090849]
The “% of control remaining” value of the first is lower: 106.541 for the first, 116.729 for the second.

Compared with CCOc1cccc(-c2cncc(NCc3cccs3)n2)c1 [CBK066034], O=c1c2scc(-c3cccc(F)c3)c2ncn1Cc1ccc(F)cc1 [CBK287810] is lower in “% of control remaining” value: 85.4136 for the first, 63.9154 for the second.

First: O=c1/c(=C/c2ccc3c(c2)OCO3)sc2nc3cc(Br)cnc3n12 [CBK262550]
Second: CC1CN(CCNCc2cn(C)nc2-c2cccnc2)CC(C)O1 (centres unmarked) [CBK305151]
The “% of control remaining” value of the first is higher: 104.968 for the first, 51.6123 for the second.

First: O=c1[nH]c2ccccc2n1C1CCN(CCOC(c2ccc(F)cc2)c2ccc(F)cc2)CC1 [CBK099807G]
Second: O=C(COc1ccc(F)cc1)N1CCC2(CCNC2)C1 (centres unmarked) [CBK156691C]
The “% of control remaining” value of the first is lower: 100.308 for the first, 116.946 for the second.

Going from COc1cc2c(cc1OC)C(C)N(Cc1cc(C)c(O)c(C)c1)CC2 (centres unmarked) [CBK074659C] to CCNC(=S)N1CC[C@@H]2N(C)CC[C@]2(c2ccc(OC)c(OC)c2)CC1 [CBK059113T], the “% of control remaining” value rises from 13.0819 to 78.3515.

Going from CCn1ncc(CN2CCC(c3onc4c3CCCC4)CC2)c1C [CBK284576] to CCN1CCN(C(=O)c2csnn2)CC1 [CBK200376], the “% of control remaining” value rises from 92.2222 to 105.114.

For NC(=O)N/N=C/c1cc(Br)cs1 [CBK026434], the “% of control remaining” value was 66.6754.
